Reference: publication PMC4242493
Some of the results follow. The list includes weakly bound sequences.

Each sequence was assayed against MaxL homodimer (UniProt P61244) (assay: universal protein-binding microarray (PBM)). Conditions: PBS-based mixture, 10 nM His-tagged protein dimer, 2% milk, 200 ng/uL BSA, 50 ng/uL salmon testes DNA, 0.02% TX-100; detection with Alexa 488 anti-His …; high values mean tight binding; most listed sequences are background and not binding sites; double strand, one strand shown.
Sequence of UniProt P61244 (P61244 whole entry): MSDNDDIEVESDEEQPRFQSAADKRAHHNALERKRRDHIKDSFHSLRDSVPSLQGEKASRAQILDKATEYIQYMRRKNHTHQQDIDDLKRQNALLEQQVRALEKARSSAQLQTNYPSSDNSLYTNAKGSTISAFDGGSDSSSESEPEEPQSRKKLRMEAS

Sequence | binding signal (normalized occupancy)
ATACTGTC | 0.0768
ATCGGATG | 0.0777
CGTGCACG | 0.123
CACGACTC | 0.0772
ATTCATAC | 0.0848
ACCGCGAA | 0.069
CTTGTTTC | 0.077
AAGTGGCG | 0.0736
AGAGGTCC | 0.07
AAAAAGCT | 0.0692
GTAACGGA | 0.0708
GGGTCCAA | 0.0742
CAATCAGA | 0.0781
AGGACGGC | 0.0716
ACGTAATG | 0.0857
CCGGGATA | 0.0729
AAACGGAG | 0.0738
GCGACAGC | 0.0756
CAGATAGA | 0.0777
CTCCGCTC | 0.0698
ACAATCGG | 0.0707
GACCCTGA | 0.0699
ACATACCC | 0.0816
GGGGCAAC | 0.0732
ATTACATC | 0.0836

Sequence | binding signal (normalized occupancy)
CTAACCCA | 0.0788
GGAGAAAA | 0.0724
ATTTAGCC | 0.0757
AGAGGACG | 0.066
AAGCACAC | 0.0823
AAAGTGGG | 0.0758
ATGATCGA | 0.0845
ATTCAAAT | 0.0758
CCTGGTTA | 0.078
CTCCGACA | 0.0693
GACAAACA | 0.0813
CGACAATA | 0.078
GGGCCGAA | 0.0706
CGTTCAGA | 0.0735
CGTAGAAC | 0.0696
CACAACCG | 0.0757
CAAAAGCA | 0.0766
CCATAGAA | 0.0789
GAGCACAC | 0.0956
AGTTATAT | 0.0794
ATGGGCAC | 0.08
ATAGTCTA | 0.0774
ATGGATGA | 0.0855
TGTCGCAA | 0.0714
CTCCGCGA | 0.0675

Sequence | binding signal (normalized occupancy)
TAGAAACA | 0.0813
AACGGGGT | 0.0733
CGGCGGGA | 0.0669
CGGCCCAA | 0.0719
AAACTAAG | 0.0736
GTGGCATA | 0.0887
CAGGAGAG | 0.0757
CAGAGGAG | 0.0699
AATGGGAT | 0.076
AGCATGGG | 0.106
CAAATATA | 0.0797
ATCCTTCG | 0.0692
GGTATGGA | 0.0828
TCTAAACA | 0.0842
ACAGATGA | 0.0804
CGTATCAA | 0.0778
GTCTCAAA | 0.0765
CGTTTCTC | 0.072
CGTCGAGC | 0.068
AGTAGCAA | 0.0734
AAGGCTAG | 0.077
GGATTTAC | 0.075
ACCACCAC | 0.0897
CAATCCCC | 0.08
CCATCCAC | 0.0857

Sequence | binding signal (normalized occupancy)
AACATATT | 0.0801
CGCTAGAC | 0.069
TCGCCCCA | 0.0771
ACCTACGT | 0.0778
AAGCCCAC | 0.0761
GGTCTGAA | 0.0729
AGCCCGAG | 0.066
AGTACTAC | 0.0779
ACTGGCAG | 0.0695
ATACTATA | 0.0829
GCAGCGTA | 0.0733
AAAAGGAG | 0.0701
AGCAAGAC | 0.0801
GCGCAAAC | 0.0713
GGGGAGCA | 0.083
ATTGTTGC | 0.0736
ATCGTTAC | 0.078
AACCTTGG | 0.0741
CTCCAGCA | 0.0773
CATCAATC | 0.0848
CGGGAACC | 0.066
GGCGTTGA | 0.0756
ATATGCCC | 0.0833
CGCGAGTA | 0.0769
ATGATCAC | 0.0825

Sequence | binding signal (normalized occupancy)
ACACTGTC | 0.0754
GGCTCGCA | 0.0734
ACCAGAAT | 0.0756
GCTACACC | 0.0779
AAAAGGGT | 0.0749
AAGTTGCG | 0.0716
GGACCAAA | 0.0678
AGCTGTCA | 0.0743
ACATAACT | 0.0846
CAGCAATA | 0.074
ACGGAGGA | 0.0782
ATCTTGCC | 0.0712
CACAAGAG | 0.0792
ATTTATTA | 0.0778
GTTGATAA | 0.0805
CATGAGAA | 0.0833
CGAGCGCC | 0.0651
CCTGTTAA | 0.0803
AACCGGAG | 0.0646
CGCTCGTC | 0.0684
ACAGACAC | 0.0793
AGTAAATC | 0.076
ACGATAAT | 0.0798
ATTCGATA | 0.0815
ACTACGTA | 0.0755

Sequence | binding signal (normalized occupancy)
ATCACAGA | 0.0733
TCGGGCCA | 0.0677
ACCTCTAA | 0.0727
CGACCACG | 0.0907
CAGAGCAC | 0.0798
TACGCAAA | 0.072
GCCCCATA | 0.084
CGTCCCAA | 0.0723
ATGCTCCC | 0.0866
CTCTGACA | 0.0732
GGTCTACA | 0.0766
GAGGGCAA | 0.0765
CGCTCCCC | 0.0697
TATATTCA | 0.0819
AGTTTTAC | 0.0697
AAGCTTTC | 0.0677
AACGGAGT | 0.0667
CAACGATA | 0.0751
AGCTTAGA | 0.0747
AGGGGAGA | 0.0776
AGATCTTC | 0.075
CATGCGTC | 0.113
AGTCTCGC | 0.0733
GGAATCCA | 0.0798
AGTTGCAC | 0.0721

Sequence | binding signal (normalized occupancy)
CGTGATTC | 0.091
CGTAGGCA | 0.0743
CGCCTATC | 0.0788
AGTTAACA | 0.0755
AGGATGAT | 0.0844
AGTTGATC | 0.0777
CAGGTGCC | 0.0785
CCGCGGCG | 0.0673
GGATATCA | 0.082
GCAAGGCC | 0.0692
GGAGGCGA | 0.074
GGGAGACC | 0.0741
ATTTTTGC | 0.0769
GACTACAA | 0.0767
CAGACCTA | 0.0725
CACATTTA | 0.0961
CTAACCAC | 0.0817
GAACGGAA | 0.0709
CCTTCTAA | 0.078
CCGGTGGA | 0.0712
GTCAAGGA | 0.0749
ATCAAGCA | 0.0748
AACTGAGA | 0.069
CCCTTGTC | 0.0759
CAATGCTG | 0.08

Sequence | binding signal (normalized occupancy)
AACGTACA | 0.0843
GCCTCCCC | 0.0802
ACCGCCTC | 0.0707
GAGCAGGC | 0.079
GACTCACA | 0.0809
ATACTGAC | 0.0725
AATTCCGC | 0.0721
TAGGCACA | 0.0825
AGGTTTAT | 0.0803
GGCGCCCC | 0.0694
ATTTTGGG | 0.0707
GCTGGGCA | 0.0677
GCGGCCCC | 0.0734
ACATTATC | 0.0876
GTGGAAGA | 0.0769
ACTACGCT | 0.0769
GACCCGGA | 0.0761
ACGCAGAT | 0.0806
CTCTTACC | 0.0753
ATATATGC | 0.0867
AGTTCCTG | 0.0697
ATACTAAA | 0.0775
CGGTAGGA | 0.0713
TAATAACA | 0.0829
CTTGCAAC | 0.0721

Sequence | binding signal (normalized occupancy)
GAATACAC | 0.0792
CCAGAGTC | 0.0651
GGGCCTAA | 0.0681
CATAAGAG | 0.0772
AGAGTCCC | 0.0735
ATTACTTG | 0.0748
AGTGAATG | 0.0793
AAGGCTCT | 0.0712
ATCTCATC | 0.0887
GTCCAGAC | 0.0728
CCTAACTA | 0.0746
GTTCAAGA | 0.0691
ATACGGCA | 0.0791
CTCCGGCC | 0.07
AATGAAAG | 0.0748
CATTATAG | 0.0795
CGCGGAGC | 0.066
AGGCATGC | 0.1
CCAATCCG | 0.0684
CATTCTCG | 0.0775
GTCTCTAA | 0.0742
CAGTAATG | 0.0747
TCCCCACA | 0.0842
ATTAACGA | 0.0815
ATGTATCA | 0.0901

Sequence | binding signal (normalized occupancy)
ATCCCGAT | 0.0787
CTCGCTCC | 0.0678
TGGCATAA | 0.0826
ACCGGGCG | 0.0674
CTCTCTGA | 0.0677
AATTCCGG | 0.0686
ACTTTATG | 0.0826
TCCACGGA | 0.0739
CAACCTGA | 0.0793
ACCTTCAG | 0.0702
GTACACTA | 0.0755
GCGATCAC | 0.082
CCCCTAAG | 0.0697
CCCAGAAG | 0.0682
GGTGAAAC | 0.0719
AGTAAAAT | 0.0728
ATGACTAA | 0.0795
TCGATCCA | 0.0741
ACCCCAGA | 0.0752
GAATGCCC | 0.0765
CTGAAGTC | 0.071
ACAGAAGA | 0.0734
CACATTAC | 0.0933
CATTTAAG | 0.0762
GATCCCCC | 0.0883

Sequence | binding signal (normalized occupancy)
GCATCCGA | 0.0761
GTGTTACA | 0.089
GCTACATA | 0.0798
CCAATAAA | 0.0849
AACGTCTA | 0.0689
CACTGAGA | 0.0713
ACGCCCGA | 0.0838
CTCCTGAA | 0.0694
GGAGAGCA | 0.0742
AATTTAAA | 0.0691
ACCTAGTC | 0.0711
ACGTCCAT | 0.081
ACTTGCCA | 0.0715
GGATGCAC | 0.0851
ATGGCGCG | 0.0814
GATTGTAA | 0.0753
ACATATCC | 0.0835
ATCCTTAC | 0.0772
ACCACACA | 0.085
GCCCGGCC | 0.0649
CATGGTCG | 0.0925
GGACCCCA | 0.0794
GATTATAC | 0.0735
GCCACAAA | 0.0733
ATTCTGAA | 0.0729

Sequence | binding signal (normalized occupancy)
GATCAACC | 0.0735
AACGACAG | 0.075
GGTTCTAC | 0.0735
CTCAAGGC | 0.0765
GAGTCCTA | 0.0711
ACTTCTCG | 0.0732
GTACGGTA | 0.0741
TAATTACA | 0.0778
AGGGCGAC | 0.0699
CGCGCTTC | 0.0753
ATAGTGAG | 0.0765
ATACACGG | 0.0846
ACTCTCCA | 0.0749
GGGACAAA | 0.0757
CTCTCACA | 0.0808
AGACGGAT | 0.0765
CGGTGATC | 0.0719
GCTCCAGA | 0.0689
GTGTTCTA | 0.0812
CGGGACTA | 0.0695
ACCCACAC | 0.0847
AACTAATG | 0.0755
AGGGGACA | 0.0728
CTTCCGCC | 0.0655
GCGATGTA | 0.0777

Sequence | binding signal (normalized occupancy)
ACGACTGC | 0.0679
TAGAAGAA | 0.0722
AGGCTTGG | 0.0699
CGGTAGTA | 0.0771
ACTCGCCC | 0.0699
CATCCCAG | 0.0743
CAAAAGTG | 0.0729
AATAAAGT | 0.0743
TAACTATA | 0.0828
CTCCGGCA | 0.073
ATCCGTCA | 0.0707
ACCGTTGC | 0.0705
CACACACG | 0.0916
CCTTCACC | 0.0727
GCAGCTCA | 0.0711
ACATATCA | 0.0892
CAAAGTCG | 0.0646
CCTGCTCG | 0.0686
GACACCAC | 0.0761
CGTAAATA | 0.0761
ACTTTGAT | 0.0759
ATAAAGTG | 0.082
AGTACAGA | 0.0762
TAGATTAA | 0.0757
AGAGGGGA | 0.0758

Sequence | binding signal (normalized occupancy)
AGAGAGTC | 0.0761
CTAGCTAG | 0.0669
ACTTGATG | 0.0771
AGCGGGGG | 0.0731
AGAAGATG | 0.0765
TGGAACCA | 0.0731
ACAAGAAA | 0.073
GGTCTGAC | 0.0718
GAAACATC | 0.0805
AGGTCCGA | 0.0717
AAGGACGA | 0.0678
ACAGTGAT | 0.075
AATGATGC | 0.0792
AGCACCCC | 0.0764
GACACCTA | 0.0747
AGACTACC | 0.0685
GGCAGCGA | 0.0701
AATAGGAC | 0.0851
CAGCACTC | 0.072
